{
  "source": "PubChem BioAssay AID485344",
  "about": "(National Center for Advancing Translational Sciences (NCATS), 2010)",
  "note": "The whole screen tested about 340,000 compounds, of which about 6,900 (2%) were called active. Rule as the data show it: active = inhibition above about 30%; inactive = below that, where a call was filed. The list shows a part of the results, in another mix than the full data. Entries without a call were filed so in the source.",
  "data": [
    {"biological_target": "D(2) dopamine receptor (Homo sapiens) (UniProt P14416)", "sequence (P14416 whole entry, looked up)": "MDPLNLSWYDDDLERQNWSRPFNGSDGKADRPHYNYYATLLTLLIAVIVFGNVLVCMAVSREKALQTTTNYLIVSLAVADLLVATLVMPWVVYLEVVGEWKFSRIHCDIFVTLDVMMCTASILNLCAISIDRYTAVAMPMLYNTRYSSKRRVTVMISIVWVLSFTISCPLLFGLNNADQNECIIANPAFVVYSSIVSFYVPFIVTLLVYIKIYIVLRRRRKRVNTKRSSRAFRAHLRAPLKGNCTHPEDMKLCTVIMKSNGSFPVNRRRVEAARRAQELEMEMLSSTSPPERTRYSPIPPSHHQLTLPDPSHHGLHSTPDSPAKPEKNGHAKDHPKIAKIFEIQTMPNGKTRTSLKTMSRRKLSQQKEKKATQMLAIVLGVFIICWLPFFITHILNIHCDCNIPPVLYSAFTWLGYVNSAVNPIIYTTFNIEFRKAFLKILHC", "test": "HTS Assay for Allosteric Antagonists of the Human D2 Dopamine Receptor: Primary Screen for Antagonists; also: 0% is about no effect", "conditions": "HEK293 TREx D2 cells, calcium flux, dopamine EC80; at 10 µM; stronger effect = higher value", "how_it_was_run": "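Compounds are added to dye-loaded, induced HEK293 T-REx cells coupled to calcium release via D2; after a 3 min kinetic read an EC80 dopamine stimulus is given and fluorescence is recorded for 3 more min.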", "values": [
      {"smiles": "O=C(NCC(c1ccco1)N1CCCC1)c1cn(-c2ccccc2)nc1-c1ccc(F)cc1", "note": "(centres undefined)", "inhibition": "active: 75.9%"},
      {"smiles": "CNS(=O)(=O)c1cn(CC(=O)Nc2ccc(C(C)=O)cc2)cc1S(=O)(=O)NC", "inhibition": "1.97%"},
      {"smiles": "CC(=O)N1CCc2cc(CNC(=O)c3ccccc3Br)ccc21", "inhibition": "-5.34%"},
      {"smiles": "Cc1ccc(CN2CCN(C3CCN(C(=O)Nc4ccc(C)cc4Cl)CC3)C(=O)C2=O)cc1", "inhibition": "25.2%"},
      {"smiles": "CCCCNS(=O)(=O)c1ccc(C)c(-c2nnc3c4ccccc4c(C)nn23)c1", "inhibition": "7.19%"},
      {"smiles": "O=C(Nc1ccc(Br)cc1)c1ccc(F)c(S(=O)(=O)N2CCc3ccccc32)c1", "inhibition": "-0.147%"},
      {"smiles": "O=C(NCc1cccs1)C1CCN(C(=O)N2CCOc3ccc(Cl)cc32)CC1", "inhibition": "12.8%"},
      {"smiles": "CCN(Cc1ccccc1)C(=O)C1CCN(Cc2ccc(SC)cc2)CC1", "inhibition": "active: 80.6%"},
      {"smiles": "CC(=O)N1CCc2cc(S(=O)(=O)NC(Cc3ccccc3)C(=O)NCc3ccc(C)cc3)ccc21", "note": "(centres undefined)", "inhibition": "5.64%"},
      {"smiles": "Cc1ccc(CN2CCN(C3CCNCC3)C(=O)C2=O)cc1", "inhibition": "1.85%"},
      {"smiles": "COc1ccc(NC(=O)C2CCN(c3ccc(Sc4ccc(C)cc4)nn3)CC2)c(OC)c1", "inhibition": "5.4%"},
      {"smiles": "O=C(Nc1nccs1)C1CCCN(S(=O)(=O)c2cccc3cccnc23)C1", "note": "(centres undefined)", "inhibition": "active: 39.2%"},
      {"smiles": "O=C(CSc1ccc(-c2ccccn2)nn1)Nc1ccc(F)cc1F", "inhibition": "0.621%"},
      {"smiles": "Cc1ccc(S(=O)(=O)N2CCc3cc(C(=O)Nc4c(F)cccc4F)ccc32)cc1", "inhibition": "-1.38%"},
      {"smiles": "CCC(C(=O)N1CCN(c2cc(C)ccc2C)CC1)n1nc(C)n2c(cc3occc32)c1=O", "note": "(centres undefined)", "inhibition": "-4.89%"},
      {"smiles": "CCOC(=O)Cn1c(=O)n(C2CCCCC2)c2nc(-c3ccc(C(C)C)cc3)nc(C(N)=O)c21", "inhibition": "-23.6%"},
      {"smiles": "Cc1ccc(NC(=O)c2nc(S(=O)(=O)Cc3ccccc3C)ncc2Cl)cc1C", "inhibition": "active: 34.3%"},
      {"smiles": "COc1ccccc1NC(=O)CSC1=Nc2ccccc2C2=NC(CC(=O)NCc3ccccc3)C(=O)N12", "note": "(centres undefined)", "inhibition": "2.86%"},
      {"smiles": "CCOc1ccc(NC(=O)C2CCCN(c3nnc(C)c4c(C)n(-c5ccccc5)nc34)C2)cc1", "note": "(centres undefined)", "inhibition": "0.181%"},
      {"smiles": "COCCn1cc(C(=O)NCCCOC(C)C)c2c3ccccc3n(C)c2c1=O", "inhibition": "15.3%"},
      {"smiles": "Cc1ccccc1C(=O)NC(=S)Nc1ccccc1C(F)(F)F", "inhibition": "active: 50.4%"},
      {"smiles": "COc1ccc(CNC(=O)Cc2ccc(NC(=O)N3CCSc4ncccc43)cc2)cc1", "inhibition": "3%"},
      {"smiles": "O=c1[nH]c(C2CCCN(S(=O)(=O)c3ccc(F)cc3)C2)nc2c1nnn2Cc1ccc(F)cc1", "note": "(centres undefined)", "inhibition": "active: 67.8%"},
      {"smiles": "CCOC(=O)c1noc2nc(C)n(Cc3cccc([N+](=O)[O-])c3)c(=O)c12", "inhibition": "17.3%"},
      {"smiles": "Cc1nnc(SCC(=O)NCc2ccccc2Cl)c2nn(-c3ccccc3)c(C)c12", "inhibition": "0.695%"},
      {"smiles": "CCc1nn(CC(=O)NC(C)CCc2ccccc2)c(=O)c2cc3c(OC)cccc3n12", "note": "(centres undefined)", "inhibition": "10.8%"},
      {"smiles": "CCc1ccc(-n2nc(C)c3c(C)cc(=O)n(CC(=O)Nc4ccc(F)cc4C)c32)cc1", "inhibition": "-3.57%"},
      {"smiles": "Cc1ccc(CNC(=O)CCNS(=O)(=O)c2cccc3nsnc23)cc1", "inhibition": "-0.431%"},
      {"smiles": "CCn1cc(C(=O)N(C)c2ccc(C(C)C)cc2)c2cc(OC)c(OC)cc2c1=O", "inhibition": "-17.6%"},
      {"smiles": "Cc1c(CCC(=O)N2CCCCC2)c(=O)oc2cc3occ(C(C)(C)C)c3cc12", "inhibition": "5.19%"},
      {"smiles": "Cc1ccc2nc(NC(=O)CSc3ncc(C(=O)Nc4ccc(F)cc4)c(=O)n3C)sc2c1", "inhibition": "6.22%"},
      {"smiles": "COc1ccccc1N1CCN(C(=O)CN2C(=O)COc3ccc(S(=O)(=O)N4CCCC4)cc32)CC1", "inhibition": "1.01%"},
      {"smiles": "CCOc1ccc(C2CC(=O)c3c([nH]c(C(=O)OC4CCC(C)CC4)c3C)C2)cc1", "note": "(centres undefined)", "inhibition": "-3.65%"},
      {"smiles": "CCc1nc(SCc2cc(=O)c3cc(C)ccc3[nH]2)n[nH]1", "inhibition": "27.4%"},
      {"smiles": "CCc1cccc(NC(=O)CSc2nc3ccsc3c(=O)n2CC)c1", "inhibition": "-7.95%"},
      {"smiles": "Cc1ccc(CNC(=O)Cn2c(=O)n(Cc3ccccc3)c(=O)c3sc4ccccc4c32)cc1", "inhibition": "-10.6%"},
      {"smiles": "Cc1ccc(CN(Cc2cccn2-c2nnc(N3CCCC3=O)s2)C(=O)Nc2ccccc2C(F)(F)F)cc1", "inhibition": "9.47%"},
      {"smiles": "COc1ccc(Nc2c3c(nc4ccc(NC(=O)/C=C/c5cccc(OC)c5OC)cc24)CCCC3)cc1OC", "inhibition": "14.3%"},
      {"smiles": "CCOC(=O)c1cc(NC(=O)c2ccc(Cl)cc2)c(=O)n2c1oc1ccccc12", "inhibition": "-4.31%"},
      {"smiles": "O=C(CN1C=NS(=O)(=O)c2ccc(C(F)(F)F)cc21)Nc1cccc(C(F)(F)F)c1", "inhibition": "-6.79%"},
      {"smiles": "O=S(=O)(c1ccc(Cl)cc1)c1nc(-c2ccccc2)oc1N1CCN(c2ccccc2)CC1", "inhibition": "7.11%"},
      {"smiles": "O=C(Nc1ccc(Br)cc1)c1cccc(C(=O)Nc2ccc(Br)cc2)c1", "inhibition": "-10%"},
      {"smiles": "COc1ccccc1-c1ccc(/C=C2/C=C(CC(C)C)OC2=O)o1", "inhibition": "active: 33.5%"},
      {"smiles": "COC(=O)c1ccccc1NC(=O)c1ccc2c(=O)n3c(nc2c1)CCCCC3", "inhibition": "-0.96%"},
      {"smiles": "CCCN1CCN(c2cc3c(cc2F)c(=O)c(S(=O)(=O)c2ccc(Cl)cc2)cn3C)CC1", "inhibition": "-6.24%"},
      {"smiles": "Cc1cc(C)c2sc(NC(=O)c3ccc(S(=O)(=O)N4CCOCC4)cc3)nc2c1", "inhibition": "1.79%"},
      {"smiles": "COc1ccc(C(=O)NCC(c2ccc(N(C)C)cc2)N2CCc3ccccc32)cc1", "note": "(centres undefined)", "inhibition": "-7.58%"},
      {"smiles": "Cn1c(=O)n(C)c2cc(N3CCOCC3)c(NC(=O)c3c(F)cccc3F)cc21", "inhibition": "17.4%"},
      {"smiles": "CC1CCCN(S(=O)(=O)c2ccc(S(=O)(=O)N3CCC4(CC3)OCCO4)cc2)C1", "note": "(centres undefined)", "inhibition": "active: 39.7%"},
      {"smiles": "COc1cc(OC)c(NC(=O)Nc2c(C)n(C)n(-c3ccccc3)c2=O)cc1Cl", "inhibition": "-12.7%"},
      {"smiles": "O=C(NC1CC(=O)N(c2cccc(F)c2)C1)C(c1ccccc1)c1ccccc1", "note": "(centres undefined)", "inhibition": "-15.3%"},
      {"smiles": "Cc1cccc(C)c1NC(=O)CCCN1C(=O)CCn2nc(-c3cn(C)c4ccccc34)cc21", "inhibition": "16.7%"},
      {"smiles": "Cc1cccc(Cn2nnc(C(=O)Nc3cc(C)ccc3C)c2N)c1", "inhibition": "-1.85%"},
      {"smiles": "COc1cccc(NC(=O)C2CCN(c3nc4ccccc4nc3C(F)(F)F)CC2)c1", "inhibition": "-4.71%"},
      {"smiles": "COc1ccc(Cl)cc1NC(=O)Cn1cnc2c1c(=O)n(C)c(=O)n2C", "inhibition": "-4.33%"},
      {"smiles": "Cc1ccc(CNC(=O)CCCn2c(=O)c3ccccc3n(Cc3ccccc3C)c2=O)cc1", "inhibition": "19.8%"},
      {"smiles": "CC(NC(=O)c1ccc2c(c1)N(Cc1ccc(Cl)cc1)C(=O)c1ccccc1S2=O)c1ccccc1", "note": "(centres undefined)", "inhibition": "-0.0662%"},
      {"smiles": "CC(C)NC(=O)C1CCCN(c2ncnc3c2nc2n3CCCCC2)C1", "note": "(centres undefined)", "inhibition": "-10%"},
      {"smiles": "Cc1cccc(Cn2cnc3c(cnn3-c3ccc(Cl)cc3)c2=O)c1", "inhibition": "-8.43%"}
    ]}
  ]
}
